According to PubChem BioAssay AID1508642 (National Center for Advancing Translational Sciences (NCATS), 2021):
Out of some 43,000 compounds screened, about 200 (0.47%) were called active. Another 12% or so got no clear call; they are omitted. Calls come from the whole dose curve; as a rule, active = well fitted cell-killing curve with a large enough effect; inconclusive = small, poorly fitted or top-dose-only effect, or effect the other way; inactive = flat fitted curve, though single readings scatter. The list shows a part of the results.

Test: Cell viability qHTS assay in S16 Pmp22-F2sN cells; note: nearly all actives have a fitted effect of over 65% in size
Settings: S16 Pmp22-F2sN Schwann cells viability, CellTiter-Glo, 24 h; series mostly up to 57.5 µM; activity change, negative = cytotoxicity: at the top concentration
Summary of the method: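 Used to flag compounds lowering reporter output through toxicity, this quantitative HTS measures ATP-based CellTiter-Glo luminescence in S16 Pmp22-F2sN Schwann cells after 24 h compound exposure at 37C.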
% is set by controls: 0 for no effect and ±100 for the full control effect.

Row | SMILES | activity change, negative = cytotoxicity
1 | CCOC(=O)c1c(C)[nH]c(C)c1S(=O)(=O)N(C)CC(=O)N1CCN(c2cccc(C)c2C)CC1 | inactive: 27.6%
2 | Cc1cccc(N2C(=O)C(CC(=O)Nc3ccccc3)N(C3CCCCC3)C2=O)c1 (configuration not stated) | inactive: -15.4%
3 | COc1cccc(C(=O)Nc2nc3nc(C)c(Cc4ccccc4)c(=O)n3[nH]2)c1 | inactive: -0.721%
4 | COc1ccccc1C(=O)Nc1ccccc1C(=O)OCc1cc(=O)n2c(C)csc2n1 | inactive: 0.501%
5 | Cc1nn(C)c2c1c(-c1ccccc1)cc(=O)n2Cc1ccc(Br)cc1F | inactive: -15.7%
6 | CCOC(=O)c1c(C)oc2nc(C)nc(NCCCN3CCN(c4ccccc4OC)CC3)c12 | inactive: 1.94%
7 | COc1ccc(Nc2nnc(-c3cc4cc(Cl)ccc4oc3=O)s2)cc1 | inactive: 11.3%
8 | CCC(C)NC(=O)c1ccc(Cn2c(=O)c3cccn3c3cccnc32)cc1 (configuration not stated) | inactive: 1.26%
9 | COc1cccc(CN2C(=O)c3ccccc3C2C(=O)NCCc2ccccc2)c1 (configuration not stated) | inactive: 3.27%
10 | COc1cc(SC)ccc1C(=O)N1CCn2c3c(c4cc(C)ccc42)CCCC31 (configuration not stated) | inactive: 0.542%
11 | CCCS(=O)(=O)c1c(S(=O)(=O)CCC)c2cc(C(C)(C)C)ccn2c1C(=O)c1ccc(C)cc1 | inactive: -6.25%
12 | O=C(CCCCCn1c(=O)[nH]c2ccsc2c1=O)NCc1ccccc1 | inactive: -2.4%
13 | CCOc1ccc(CNC(=O)Cn2nc(N3CCN(c4ccccc4)CC3)ccc2=O)cc1 | inactive: -17.5%
14 | Oc1c(C(c2cccc(Br)c2)N2CCCC2)sc2nc(-c3ccco3)nn12 (configuration not stated) | inactive: 5.85%
15 | Cc1ccc(C(=O)Nc2c(C)nc3ccccn3c2=O)cc1 | inactive: 2.25%
16 | COc1ccccc1CNC(=O)CSc1nc2nc(C)c(Cc3ccccc3C)c(C)n2n1 | inactive: 2.19%
17 | O=C(NCc1ccc(Cl)cc1)C1CCN(C(=O)c2cnn(-c3ccccc3)c2-n2cccc2)CC1 | inactive: -14.3%
18 | CCc1nnc2c(NCc3ccccc3)nc3ccccc3n12 | inactive: 3.57%
19 | CCOc1ccc(-c2cc(NC(=O)Nc3ccccc3Cl)c(C(=O)OC)s2)cc1 | inactive: -13.7%
20 | Cc1ccc(-c2nnc(Nc3ccc(F)cc3)c3ccccc23)cc1S(=O)(=O)NC(C)C | inactive: -0.234%
21 | Cc1ccc(C(=O)N2CCN(c3ccccc3)CC2)cc1NC(=O)c1nsc2ccccc12 | inactive: -2.04%

Row | SMILES | activity change, negative = cytotoxicity
22 | Cc1ccc(/C=C/c2onc(C)c2S(=O)(=O)N2CCC(C(=O)Nc3cccc(C#N)c3)CC2)cc1 | inactive: 18%
23 | CCN(CC)CCNC(=O)CN1C(=O)CSc2ccc(S(=O)(=O)N3CCOCC3)cc21 | inactive: 12%
24 | CCOC(=O)COc1ccc(CC)cc1C(=O)c1ccn2nc(-c3ccc(C)cc3)cc2n1 | inactive: 18.7%
25 | Cc1ccccc1CSc1nc2c([nH]c3ccccc32)c(=O)n1-c1ccccc1 | inactive: 0.948%
26 | Cn1c(-c2cccc(Br)c2)cnc1NCc1cccc(F)c1 | inactive: -10.8%
27 | Cc1cccc(-c2nnc(SCC(=O)Nc3ccc(C)c(C)c3)o2)c1 | inactive: 0.185%
28 | CC(C)c1ccc(NC(=O)C2CCCN(S(=O)(=O)c3ccc4[nH]c(=O)oc4c3)C2)cc1 (configuration not stated) | inactive: 1.23%
29 | CCN(CC)S(=O)(=O)c1ccc2c(c1)c(=O)c(C(=O)N1CCN(c3ccc(OC)cc3)CC1)cn2C | inactive: 3.15%
30 | CCc1ccccc1NC(=O)c1nc2nc(C)cc(C(F)F)n2n1 | inactive: 0.43%
31 | Cc1ccc(CNC(=O)CN2N=C(c3ccc(C)cc3)CCC2=O)cc1 | inactive: -0.324%
32 | Cc1ccc(CNC(=O)c2cc3c(=O)n4cccc(C)c4nc3s2)cc1 | inactive: 4.67%
33 | Cc1nc(-c2ccc(F)cc2)sc1CCNC(=O)c1ccccc1C(F)(F)F | inactive: 5.54%
34 | Cc1ccc2oc(C(=O)NCC(c3ccc(Cl)cc3)N3CCOCC3)c(C)c2c1 (configuration not stated) | inactive: 1.22%
35 | CC1=C(C(=O)Nc2ccccc2C)C(c2sccc2C)n2ncnc2N1 (configuration not stated) | inactive: 3.79%
36 | Cc1ccc(S(N)(=O)=O)cc1NC(=O)c1c(-c2c(Cl)cccc2Cl)noc1C | inactive: 0.847%
37 | Cc1cccc(CSc2ncc(Cl)c(C(=O)Nc3nnc(C)s3)n2)c1 | inactive: -10.1%
38 | Cc1ccc(CNC(=O)CN2C(=O)C3CCCCN3c3ccc(C(=O)N(C)C)cc32)cc1 (configuration not stated) | inactive: 6.06%
39 | COc1ccccc1NC(=O)CN1C(=O)C(C)(C)c2ccccc21 | inactive: 2.32%
40 | COc1ccccc1C(=O)Nc1ccccc1C(=O)OCc1cc(=O)n2ccsc2n1 | inactive: 15.8%
41 | CCOC(=O)c1sc(NC(=O)c2nc3nc(C)cc(C(F)F)n3n2)c(C(=O)OC(C)C)c1C | inactive: 10.1%
42 | Cc1ccc(-c2nc(CCNC(=O)C(=O)Nc3ccc(C)c(Cl)c3)cs2)cc1 | inactive: 2.94%

Row | SMILES | activity change, negative = cytotoxicity
43 | CCCN(CCC)C(=O)Cn1c(SCc2cccc(F)c2)nc2cccnc21 | inactive: -9.45%
44 | CCN1C(=O)N(c2ccc(C(C)=O)cc2)S(=O)(=O)c2ccccc21 | inactive: 5.17%
45 | CSc1ccc(CCNC(=O)Cn2ncn3c(cc4ccccc43)c2=O)cc1 | inactive: -0.16%
46 | Cc1ccccc1Nc1c(-c2cccnc2)nc2cccc(C)n12 | inactive: 4.71%
47 | Cc1cccc(NC(=O)C2CCCN(S(=O)(=O)c3c(C)n[nH]c3C)C2)c1 (configuration not stated) | inactive: 2.38%
48 | CCC(C(=O)Nc1ccccc1)n1nc(-c2cc(C)ccc2C)ccc1=O (configuration not stated) | inactive: 7.83%
49 | CCN(C(=O)c1cc2c(=O)n(CC)c3ccccc3c2s1)c1cccc(C(F)(F)F)c1 | inactive: -5.07%
50 | Cn1nc(-c2ccc(OCC(=O)Nc3ccc(Cl)cc3)cc2)c2ccccc2c1=O | inactive: -5.46%
51 | CCOc1ccc(-c2nnc(SCC(=O)NC(C)CC)nc2-c2ccc(OCC)c(OC)c2)cc1OC (configuration not stated) | inactive: 5.93%
52 | COc1cccc(NC(=O)Cn2c(=O)ccc3cc(S(=O)(=O)N4CCC(C)CC4)ccc32)c1 | inactive: 6.2%
53 | COc1ccc(Cl)cc1S(=O)(=O)N1CCN(CC(=O)Nc2ccccc2C(F)(F)F)CC1 | inactive: 0.752%
54 | CCOc1ccc(-n2nc3ccc(NC(=O)c4cccc(F)c4)cc3n2)cc1 | inactive: 21.6%
55 | CCSc1nc2c([nH]c3ccccc32)c(=O)n1-c1cccc(OC)c1 | inactive: 14.3%
56 | COc1ccc(-c2nc(CCNC(=O)c3c(F)cccc3Cl)cs2)cc1 | inactive: -6.24%
57 | CCCCNc1ccc(-c2nc(-c3ccncc3)no2)cc1[N+](=O)[O-] | inactive: 22.9%
58 | CCCCc1nn2c(=O)cc(COC(=O)c3ccco3)nc2s1 | inactive: 20.1%
59 | CC(=O)Nc1nonc1-c1nnc(SCC(=O)Nc2cccc(C)c2C)n1-c1ccccc1 | inactive: -4.02%
60 | COc1cc(C(=O)Nc2cccc(OCc3cc(=O)n4cc(C)sc4n3)c2)cc(OC)c1OC | inactive: 29.7%
61 | COc1ccc(Cn2cc(C(=O)c3ccc(F)cc3)c(=O)c3cc4c(cc32)OCCO4)cc1 | inactive: 3.1%
62 | Cc1nn(C)c(C)c1CCNC(=O)Nc1cccc(Cl)c1C | inactive: 6.82%
